Out of some 370,000 compounds screened, about 150 (0.041%) were called active. This list was built around the results that the source calls inconclusive (neither active nor inactive); the mix of calls is not that of the screen. Calls follow the shape of the dose curve; as a rule, active = well fitted inhibition curve with a large enough effect; inconclusive = small, poorly fitted or top-dose-only effect; inactive = flat fitted curve, though single readings scatter. Potencies of inconclusive entries are left out as doubtful fits.
molecular target: Beta-lactamase (Escherichia coli (strain K12)) (UniProt P00811); experiment: qHTS Inhibitors of AmpC Beta-Lactamase (assay with detergent); settings: AmpC hydrolysis of nitrocefin, absorbance 480 nm, 0.01% Triton; series mostly up to 114 µM; also: nearly all actives have a fitted effect of over 25% in size
Sequence of UniProt P00811 (P00811 whole entry, looked up): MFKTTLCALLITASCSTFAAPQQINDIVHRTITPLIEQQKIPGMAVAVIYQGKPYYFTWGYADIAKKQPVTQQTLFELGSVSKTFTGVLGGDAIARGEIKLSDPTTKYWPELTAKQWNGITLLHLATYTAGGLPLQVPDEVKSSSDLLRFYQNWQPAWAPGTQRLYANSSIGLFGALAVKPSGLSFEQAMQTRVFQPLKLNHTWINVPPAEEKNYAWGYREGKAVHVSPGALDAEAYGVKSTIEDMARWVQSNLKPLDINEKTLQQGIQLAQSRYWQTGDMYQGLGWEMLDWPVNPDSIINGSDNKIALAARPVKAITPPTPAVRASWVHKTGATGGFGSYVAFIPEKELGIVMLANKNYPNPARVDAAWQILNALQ
In short: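 20 mM phosphate pH 7.0 + 0.01% (detergent screen) or 0.0001% Triton X-100; 5.3 nM AmpC reagent; cpd preinc 15 min RT; nitrocefin (800 uM stock) to start; A480 q20 s × 4 min; Activity was normalised to no-enzyme and no-compound control wells.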
Potency is read from the fitted curve at half-maximal effect; tags tell the direction and shape of the fitted curve.

Compound	Potency
COc1cccc(C(=O)CC(=O)C(=O)Nc2cc(OC)ccc2OC)c1	inconclusive [inhibitor, full curve, poor fit]
O=C(CSc1nc2ccccc2s1)NCc1cc([N+](=O)[O-])ccc1O	inconclusive [inhibitor, partial curve]
O=C1/C(=N\S(=O)(=O)c2cccs2)C([n+]2cccc(Cc3ccccc3)c2)=C([O-])c2ccccc21	inactive
COc1ccc(S(=O)(=O)Nc2cc(C)nn2-c2ccccc2)cc1	inconclusive [inhibitor, single point]
CCN(CC)c1ccc(/C=N/NC(=O)Cc2nnc(NC(=O)Nc3ccccc3)s2)cc1	inconclusive [inhibitor, partial curve]
COc1ccc(Br)cc1CNc1ccc(O)cc1	inconclusive [inhibitor, single point]
COc1cccc(-c2[nH]nc3c2C(c2ccoc2)C(C#N)=C(N)O3)c1 (stereo not drawn)	inconclusive [inhibitor, full curve, poor fit]
NC(=O)CC[C@H](NC(=O)c1ccc(F)cc1)C(=O)OCC(=O)Nc1ccc(N2CCOCC2)cc1	inactive
COc1ccc(C(=O)Nc2ccc(C3(C#N)CCCC3)cc2)cc1OC	inconclusive [inhibitor, partial curve, poor fit]
CCCN(C(=O)c1ccco1)c1nnc(-c2ccccc2C)s1	inactive
CCOc1ccc(-c2ccc(SCc3ccccn3)nn2)cc1	inconclusive [inhibitor, full curve]
S=C(NCc1ccc(Cl)cc1)NC1CCCCC1	inconclusive [inhibitor, partial curve, poor fit]
CCOC(=O)C1CCN(c2ncnc3c2c(-c2ccccc2)cn3-c2ccccc2)CC1	inactive
CCN(CC)Cc1c(O)ccc2c([N+](=O)[O-])c(C)n(-c3ccc(OC)cc3)c12	inconclusive [inhibitor, single point]
CCN(CC)c1ccc(C(=O)OCC(=O)c2ccco2)cc1	inconclusive [inhibitor, full curve]
CSc1ccccc1NC(=O)c1cnc2n(c1=O)CCS2	inconclusive [inhibitor, partial curve, poor fit]
COc1cccc(C(=O)N/N=C/C(Br)=C/c2ccccc2)c1	inconclusive [inhibitor, full curve, poor fit]
O=C(Nc1ccn(Cc2c(F)c(F)c(F)c(F)c2F)n1)c1cccc(Cn2cc([N+](=O)[O-])cn2)c1	inconclusive [inhibitor, partial curve]

— PubChem BioAssay AID485294 (National Center for Advancing Translational Sciences (NCATS), 2010)
